The text below walks through data of the RNAGym collection of RNA variant scans (doi:10.1073/pnas.2313332121).

Sequences and labels used below:
B1: TPR 5TU (parent)
chain: GGAUCUUCUCGAUCUAACAAAAAAGACAAAUCUGCCACAAAGCUUGAGAGCAUCUUCGGAUGCAGAGGCGGCAGCCUUCGGUGGCGCGAUAGCGCCAACGUUCUCAACUAUGACACGCAAAACGCGUGCUCCGUUGAAUGGAGUUUAUCAUG

This sample is rich in variants without activity.

In the data set the parent is B1. The data set is described as follows: polymerase ribozyme fitness, log enrichment relative to wild type (log ratio); higher = more active; in vitro selection for triplet polymerase activity. The method, boiled down:
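After PCR construction and transcription, each subunit's mutant library from a heterodimeric triplet polymerase ribozyme was annealed with a biotinylated primer, the partner subunit and triplets. Incubation was frozen, at −7 °C, and extended constructs were gel-excised, bound to streptavidin beads and amplified by RT-PCR, in one selection round done in triplicate. Fitness is the logarithm of a genotype's enrichment divided by that of the wild type, from inverse-variance-weighted replicate averages of Illumina-sequenced inputs and outputs. The base of the logarithm is 2, and genotypes needed ≥10 input reads and ≥1 read per output.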
In the case of A20U G42U U90G C96A G117A A137U, the “polymerase ribozyme fitness (log ratio)” value is not above -4.2. Consider A20U G68C G88A C96A C125U, for which the “polymerase ribozyme fitness (log ratio)” value was not above -4.2. With A20G C96U, the “polymerase ribozyme fitness (log ratio)” value is -0.654. The value for A20U A29C C57A C75G was not above -4.2.

With A20U G74A, the “polymerase ribozyme fitness (log ratio)” value was not above -4.2. The value for A20U G74U C93U U104G was not above -4.2. The value for A20C C96U A98C G100A was not above -4.2; that for A20U C85U C93G was not above -4.2; that for A20C A66G G80U G81U G133U was not above -4.2. With A20U C32G C93A G94C A138C, the “polymerase ribozyme fitness (log ratio)” value is not above -4.2. With A20U C54A G92U, the “polymerase ribozyme fitness (log ratio)” value is -3.48.

With A20C A23U A29C A41C G48C A49U G86A C87G A110C C131G G152U, the “polymerase ribozyme fitness (log ratio)” value was not above -4.2. In the case of A21C A23C A26U A47U G67U U127A, the “polymerase ribozyme fitness (log ratio)” value is not above -4.2. As for A20G C54G U82A A98U U144A, the “polymerase ribozyme fitness (log ratio)” value was -4.1. As for A20U A23C A24U C54A C85U, the “polymerase ribozyme fitness (log ratio)” value is not above -4.2. As to A20G U33A U55G C87A G140C, the “polymerase ribozyme fitness (log ratio)” value is not above -4.2.

A20G A41U C51A U56A C76U G86U G88U A91U C123A U144A C149A: the “polymerase ribozyme fitness (log ratio)” value is not above -4.2. For the variant A20C U31C A41C U55A C79A C99A C125G, the “polymerase ribozyme fitness (log ratio)” value was not above -4.2. In the case of A20G C38A C95U C125U G140C, the “polymerase ribozyme fitness (log ratio)” value is not above -4.2.

As for A20C C54U G70C C93A G143U, the “polymerase ribozyme fitness (log ratio)” value is not above -4.2.

Consider A20U A47U G70C G80C C85G C93A C108U A122G U144G, for which the “polymerase ribozyme fitness (log ratio)” value was not above -4.2. The value for A20G G83U G124A A150C was not above -4.2; that for A20U A26G A150C was not above -4.2.

Consider A20U A52U A110G, for which the “polymerase ribozyme fitness (log ratio)” value was not above -4.2. Regarding A19U U53A A60G G117U G141U, the “polymerase ribozyme fitness (log ratio)” value was not above -4.2. The figure for A20G U44C A49U G81C C87U C103G is not above -4.2; for A20G U61A U109G A110G it is not above -4.2. The figure for A20G C27G G42C G58C G68A A121C C125U G140A is not above -4.2; for A20C A60C G81A C99A C103G G140C G143U it is not above -4.2; for A20G U44A C54A C87U A97U it is not above -4.2. For the variant A20C C35G G48A C96U A137U A147G, the “polymerase ribozyme fitness (log ratio)” value is not above -4.2. The figure for A20C C43G G83U U139G G143U U146A is not above -4.2; for A20G A24G U53A C72G C85U it is not above -4.2; for A20C C75G G84C C87U U101G C123U C131A it is not above -4.2. The value for A20U G48C C75A U82A A89U A91C C118U was not above -4.2. In the case of A19U U56G C57A G88A, the “polymerase ribozyme fitness (log ratio)” value is not above -4.2.

For the variant A20G A24U A37G A52U C57G C96G, the “polymerase ribozyme fitness (log ratio)” value was not above -4.2. For A20G A21G U61G C95G A106G A137U, the “polymerase ribozyme fitness (log ratio)” value is not above -4.2. The figure for A19U U53A G62C C85U U101G U146A is not above -4.2.

As for A20C U55A C132A A137G G143A U146G, the “polymerase ribozyme fitness (log ratio)” value is not above -4.2. In the case of A20C A22G A37U C69U A98G G126U G140C, the “polymerase ribozyme fitness (log ratio)” value is not above -4.2. With A20U G50C G86U G124C G140U, the “polymerase ribozyme fitness (log ratio)” value was not above -4.2. In the case of A20U G46C A47C C93U A142U, the “polymerase ribozyme fitness (log ratio)” value is not above -4.2. The value for A20G C32G G67U G100U U101G U127G U134G was not above -4.2; that for A20C A41U G68C G83A G100U A115G C116U C123G was not above -4.2; that for A20U A23C A49G C54U C76U G84A A122U U145G was not above -4.2. For the variant A19U U31C U53G C95U C108G, the “polymerase ribozyme fitness (log ratio)” value was not above -4.2. The value for A20U C54U C75G U82G G92A C131U G136U U144C was not above -4.2; that for A20C A39C A73G G83A A91U G140U U145C was not above -4.2. The figure for A20C C87U C96U U102G U130G G143A is not above -4.2; for A20G G88U C99U A121G it is not above -4.2.

Turning to A20G C35G A49C A64G G100C U109C A113G U144G U151G, the “polymerase ribozyme fitness (log ratio)” value was not above -4.2. On to A20G A49C G62A A107G A121G, for which the “polymerase ribozyme fitness (log ratio)” value is not above -4.2.

For the variant A20C A21U G25C A41C A60C C69G C85A C108A C118A, the “polymerase ribozyme fitness (log ratio)” value was not above -4.2. Regarding A20C C32G G59C G68C C87A U109G, the “polymerase ribozyme fitness (log ratio)” value was not above -4.2. As to A20G A22U A28U G94C C108U, the “polymerase ribozyme fitness (log ratio)” value is not above -4.2. For A20G A41C G46C U82C C95A C116U U134A, the “polymerase ribozyme fitness (log ratio)” value is not above -4.2. As to A20U U33G G42U C63G G71A A113G, the “polymerase ribozyme fitness (log ratio)” value was not above -4.2. The value for A20G G46A U146A was -1.3; that for A20G A21C U53G U102G A106C C129A was not above -4.2; that for A19U G94C was -0.449. Take A20U G46A G140C: the “polymerase ribozyme fitness (log ratio)” value is not above -4.2. The value for A20U A30G A41G U45A U53G C96G was not above -4.2; that for A20U A24C G84U G100C A142C A147C U148C was not above -4.2; that for A20G C85A was -2.13.

In the case of A20U A24G C35G U44A C96A C125U G136U, the “polymerase ribozyme fitness (log ratio)” value was not above -4.2.

Consider A20C A22C C43U G83C, for which the “polymerase ribozyme fitness (log ratio)” value is not above -4.2. The figure for A20U G42C U55C G68C A119G A150G is not above -4.2; for A20U A41U C63A A106G U145A it is -2.83; for A20G A26G A37G A49C G92C it is not above -4.2. The value for A20U A29U C38G U56A C72U A89U C95A A97G was not above -4.2; that for A20G G74U A89U A122G was not above -4.2. The figure for A20G G42A C75G G83U A97U C131A G143A is not above -4.2; for A20U G62C G94A it is -3.04. Turning to A20G C27G A47U A97G A115G G124C G136C U144C, the “polymerase ribozyme fitness (log ratio)” value is not above -4.2.

As for A20C A49C G94A A138G A147U, the “polymerase ribozyme fitness (log ratio)” value was not above -4.2.

As for A20G A21C G94A U146G, the “polymerase ribozyme fitness (log ratio)” value is -0.812.

In the case of A20U U61A C93A, the “polymerase ribozyme fitness (log ratio)” value is not above -4.2.

Turning to A20G A52U U53G G86A C96U U135A, the “polymerase ribozyme fitness (log ratio)” value is not above -4.2. For A20C U53A C54A A73G C85G C129U U144C, the “polymerase ribozyme fitness (log ratio)” value is not above -4.2. The figure for A20U U55G A91C is not above -4.2; for A20U G67C it is not above -4.2; for A20U G94C C149G it is not above -4.2.
